Reference: the supplement of paper PMC10126150
Values marked as one replicate rest on one cluster of the flow cell; about a third of the high ones do not repeat.

Test system: ATP
Assay: switch fluorescence ratio, 500 uM ATP over buffer (Cy3 cluster intensity, sum of 5 cycles each) (fold (ratio)); higher = stronger signal-on switching upon ATP binding; sequences stand for … in TCGTCGGCAGCGTCAGATGTGTATAAGAGACAGTTTTTTTTTTTTTTTTTTTTTTTTT…TC
Conditions: aptamer strand: ATP DNA aptamer (quencher-CACCTGGGGGAGTATTGCGGAGGAAGG + anchor), 100 nM annealed; ATP concentration: 500 uM; one replicate
Method in brief: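 For every switch-domain sequence, the fluorescence ratio is the mean of per-cluster values, each being summed target-cycle Cy3 intensity over summed buffer-cycle Cy3 intensity. Clusters outside 100-1000 RFU were excluded. On a modified Illumina MiSeq flow-cell, the Cy3-labelled switching-strand clusters were annealed to 100 nM quencher-labelled ATP aptamer, imaged in selection buffer and then after 15 min with 500 uM ATP at 22 °C. Five such cycles were run, with NaOH stripping and re-annealing between them.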
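Also: ATP exposure 15 min at 22 °C before imaging.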

Row | Sequence | switch fluorescence ratio
1 | GCATTATAAG | 1.04
2 | GCATTGGACA | 1
3 | GCATTGGCAG | 1.02
4 | GCATTTGGGC | 1.02
5 | GCATTTTAAG | 1.05
6 | GCCAAAAAGA | 1.01
7 | GCCAAAAGAC | 1.22
8 | GCCAACGACT | 1.05
9 | GCCAATCCTT | 0.991
10 | GCCACAAAAG | 0.965
11 | GCCACAATTG | 1.03
12 | GCCACAGTTT | 1.01
13 | GCCACCGAGT | 1.01
14 | GCCACCGATA | 1.1
15 | GCCACCGGTC | 0.931
16 | GCCACTAACT | 1.08
17 | GCCACTACTA | 1.09
18 | GCCACTTATT | 0.952
19 | GCCAGCGCAA | 2.03
20 | GCCAGT | 0.984
21 | GCCAGTGAGA | 1.04
22 | GCCAGTTCCT | 1.04
23 | GCCATAAAAT | 1
24 | GCCATAAGTA | 0.971
25 | GCCATACTCT | 1.45

Row | Sequence | switch fluorescence ratio
26 | GCCATAGGGG | 1.06
27 | GCCATCACTG | 0.972
28 | GCCATCCCAC | 1.14
29 | GCCATCGTTT | 0.942
30 | GCCATGCGAA | 0.98
31 | GCCATGGAGT | 1.04
32 | GCCATGTTAC | 1.1
33 | GCCATGTTCG | 1.03
34 | GCCATTACAC | 0.983
35 | GCCATTACTT | 1.03
36 | GCCATTGAGA | 1.02
37 | GCCATTGTGA | 0.989
38 | GCCCAGGCAC | 1
39 | GCCCATCTGG | 0.994
40 | GCCCCACCAA | 1.02
41 | GCCCCAGTCA | 1.08
42 | GCCCCCCAGC | 1.57
43 | GCCCGAACCT | 1.65
44 | GCCCGAACTT | 1.06
45 | GCCCGACCTC | 1.31
46 | GCCCGCCGGG | 0.993
47 | GCCCGGTGCA | 0.972
48 | GCCCGTGATA | 1.71
49 | GCCCTAAGAA | 0.944
50 | GCCCTAATTT | 1.06

Row | Sequence | switch fluorescence ratio
51 | GCCCTATTCG | 0.955
52 | GCCCTCAACT | 0.987
53 | GCCCTTCGTT | 0.976
54 | GCCCTTGCAC | 1.02
55 | GCCGAAATTG | 1
56 | GCCGAATCAC | 1.01
57 | GCCGATATCA | 1.04
58 | GCCGATCAC | 1.01
59 | GCCGCATCCA | 1.11
60 | GCCGCATGCA | 1.26
61 | GCCGCATTTA | 1.48
62 | GCCGCGGGGG | 0.968
63 | GCCGCGTAAG | 1.07
64 | GCCGCTGCTA | 1.05
65 | GCCGCTGGCG | 1.01
66 | GCCGGAGATG | 0.994
67 | GCCGGAGGCA | 1.03
68 | GCCGGCACTA | 1.02
69 | GCCGGCCAAA | 0.961
70 | GCCGGCGGGG | 0.975
71 | GCCGGGCCAA | 1.01
72 | GCCGGGCCTT | 0.952
73 | GCCGGGTAGC | 1.01
74 | GCCGGGTCA | 0.961
75 | GCCGGTAGTG | 0.997

Row | Sequence | switch fluorescence ratio
76 | GCCGTAAGCT | 1.06
77 | GCCGTACACT | 0.989
78 | GCCGTCCAAG | 1.01
79 | GCCGTGCATG | 0.992
80 | GCCGTGGTAG | 1.01
81 | GCCGTGTGCA | 0.988
82 | GCCGTGTGGT | 0.988
83 | GCCGTTAGGA | 0.993
84 | GCCGTTCGGC | 1.01
85 | GCCGTTCGGG | 1.05
86 | GCCGTTGAGA | 1.03
87 | GCCGTTTACG | 1.01
88 | GCCGTTTGCA | 0.972
89 | GCCTAACGAT | 1.03
90 | GCCTACATGC | 1.04
91 | GCCTAGGCTA | 0.986
92 | GCCTATAGGG | 0.989
93 | GCCTCAGGTA | 1.02
94 | GCCTCGATTC | 1.07
95 | GCCTCGCAGA | 1.14
96 | GCCTCTGAGC | 1
97 | GCCTCTGTGA | 1.45
98 | GCCTGATGCT | 1.11
99 | GCCTGCATT | 0.978
100 | GCCTGCCGCA | 2.43
